# The supplement of paper PMC8728848
# Some of the results follow.
# B1: UEA-I (Ulex europaeus), P22972 (protein)
# chain: SDDLSFKFKNFSQNGKDLSFQGDASVIETGVLQLNKVGNNLPDETGGIARYIAPIHIWNCNTGEVASFITSFSFFMETSANPKAATDGLTFFLAPPDSPLRRAGGYFGLFEDTKDNDSSYQTVAVEFDTIGSPVNFDDPGFPHIGIDVNRVKSINAERWNKRYGLNNVANVEIIYEASSKTLTASLTYPSDQTSISVTSIVDLKEILPEWVSVGFSGGTYIGRQATHEVLNWYFTSNLIN
# Tests used:
# Assay in all cases: glycan array binding signal (z-score within array); higher = stronger binding
# Conditions in all cases: glycan notation: IUPAC condensed, linker removed
# [1] = molecular target: GlcNAc(b1-3)[GlcNAc(b1-6)]Gal(b1-4)GlcNAc
# Procedure, shortened: (§1)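 Glycan array data were curated from 3228 arrays in the Consortium for Functional Glycomics database and kept only where the protein sequence was available. Glycan names were converted to IUPAC-condensed notation, and columns mapping to the same glycan were averaged. The binding signal is a within-array Z-score, averaged across arrays of the same protein sequence at different concentrations or buffers and across linkers. Negative Z-scores can be read as non-binding.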
# [2] = molecular target: GlcNAc(b1-3)[GlcNAc(b1-6)]GalNAc
# Procedure, shortened: as §1
# [3] = molecular target: GlcNAc(b1-4)Gal(b1-4)GlcNAc
# Procedure, shortened: as §1
# [4] = molecular target: GlcNAc(b1-4)GlcNAc
# Procedure, shortened: as §1
# [5] = molecular target: GlcNAc(b1-4)GlcNAc(b1-4)GlcNAc
# Procedure, shortened: as §1
# [6] = molecular target: GlcNAc(b1-4)GlcNAc(b1-4)GlcNAc(b1-4)GlcNAc(b1-4)GlcNAc
# Procedure, shortened: as §1
# [7] = molecular target: GlcNAc(b1-4)GlcNAc(b1-4)GlcNAc(b1-4)GlcNAc(b1-4)GlcNAc(b1-4)GlcNAc
# Procedure, shortened: as §1
# [8] = molecular target: GlcNAc(b1-4)[GlcNAc(b1-6)]GalNAc
# Procedure, shortened: as §1
# [9] = molecular target: GlcNAc(b1-6)Gal(b1-4)GlcNAc
# Procedure, shortened: as §1
# [10] = molecular target: GlcNAc(b1-6)GalNAc
# Procedure, shortened: as §1
# [11] = molecular target: GlcNAc3Prop(b1-4)GlcNAc
# Procedure, shortened: as §1
# [12] = molecular target: GlcNAc6S(b1-3)Gal(b1-4)GlcNAc
# Procedure, shortened: as §1
# [13] = molecular target: Kdn(a2-3)Gal(b1-3)GalNAc
# Procedure, shortened: as §1
# [14] = molecular target: Kdn(a2-3)Gal(b1-3)GlcNAc
# Procedure, shortened: as §1
# [15] = molecular target: Kdn(a2-3)Gal(b1-4)Glc
# Procedure, shortened: as §1
# [16] = molecular target: Kdn(a2-3)Gal(b1-4)GlcNAc
# Procedure, shortened: as §1
# [17] = molecular target: Kdn(a2-3)Gal(b1-4)[Fuc(a1-3)]GlcNAc
# Procedure, shortened: as §1
# [18] = molecular target: Kdn(a2-6)Gal(b1-4)GlcNAc
# Procedure, shortened: as §1
# [19] = molecular target: Man(a1-2)Man(a1-2)Man(a1-3)Man
# Procedure, shortened: as §1
# [20] = molecular target: Man(a1-2)Man(a1-2)Man(a1-6)[Man(a1-3)]Man
# Procedure, shortened: as §1
# [21] = molecular target: Man(a1-2)Man(a1-3)Man
# Procedure, shortened: as §1
# [22] = molecular target: Man(a1-2)Man(a1-3)[Man(a1-2)Man(a1-6)]Man
# Procedure, shortened: as §1
# [23] = molecular target: Man(a1-2)Man(a1-3)[Man(a1-2)Man(a1-6)]Man(a1-6)[Man(a1-2)Man(a1-2)Man(a1-3)]Man
# Procedure, shortened: as §1
# [24] = molecular target: Man(a1-2)Man(a1-3)[Man(a1-2)Man(a1-6)]Man(a1-6)[Man(a1-2)Man(a1-2)Man(a1-3)]Man(b1-4)GlcNAc(b1-4)GlcNAc
# Procedure, shortened: as §1
# [25] = molecular target: Man(a1-2)Man(a1-3)[Man(a1-6)]Man(a1-6)[Man(a1-2)Man(a1-3)]Man(b1-4)GlcNAc(b1-4)GlcNAc
# Procedure, shortened: as §1
# [26] = molecular target: Man(a1-2)Man(a1-6)[Man(a1-3)]Man(a1-6)[Man(a1-2)Man(a1-2)Man(a1-3)]Man
# Procedure, shortened: as §1
# [27] = molecular target: Man(a1-2)Man(a1-6)[Man(a1-3)]Man(a1-6)[Man(a1-2)Man(a1-2)Man(a1-3)]Man(b1-4)GlcNAc(b1-4)GlcNAc
# Procedure, shortened: as §1
# [28] = molecular target: Man(a1-3)[Man(a1-6)]Man
# Procedure, shortened: as §1
# [29] = molecular target: Man(a1-3)[Man(a1-6)]Man(a1-6)[Man(a1-2)Man(a1-3)]Man(b1-4)GlcNAc(b1-4)GlcNAc
# Procedure, shortened: as §1
# [30] = molecular target: Man(a1-3)[Man(a1-6)]Man(a1-6)[Man(a1-3)]Man
# Procedure, shortened: as §1
# [31] = molecular target: Man(a1-3)[Man(a1-6)]Man(a1-6)[Man(a1-3)]Man(b1-4)GlcNAc(b1-4)GlcNAc
# Procedure, shortened: as §1
# [32] = molecular target: Man(a1-3)[Man(a1-6)]Man(b1-4)GlcNAc(b1-4)GlcNAc
# Procedure, shortened: as §1
# [33] = molecular target: Man(a1-6)Man
# Procedure, shortened: as §1
# [34] = molecular target: Man(b1-4)GlcNAc
# Procedure, shortened: as §1
# [35] = molecular target: Neu5Ac(a2-3)Gal
# Procedure, shortened: as §1
# [36] = molecular target: Neu5Ac(a2-3)Gal(b1-3)GalNAc
# Procedure, shortened: as §1
# [37] = molecular target: Neu5Ac(a2-3)Gal(b1-3)GalNAc(b1-3)Gal(a1-4)Gal(b1-4)Glc
# Procedure, shortened: as §1
# [38] = molecular target: Neu5Ac(a2-3)Gal(b1-3)GalNAc(b1-4)[Neu5Ac(a2-3)]Gal(b1-4)Glc
# Procedure, shortened: as §1
binder,measurement,setting,value
B1,glycan array binding signal (z-score),[1],-0.167
same,glycan array binding signal (z-score),[2],-0.178
same,glycan array binding signal (z-score),[3],-0.181
same,glycan array binding signal (z-score),[4],-0.026
same,glycan array binding signal (z-score),[5],0.24
same,glycan array binding signal (z-score),[6],0.079
same,glycan array binding signal (z-score),[7],0.137
same,glycan array binding signal (z-score),[8],-0.181
same,glycan array binding signal (z-score),[9],-0.179
same,glycan array binding signal (z-score),[10],-0.181
same,glycan array binding signal (z-score),[11],-0.112
same,glycan array binding signal (z-score),[12],-0.167
same,glycan array binding signal (z-score),[13],-0.173
same,glycan array binding signal (z-score),[14],-0.182
same,glycan array binding signal (z-score),[15],-0.182
same,glycan array binding signal (z-score),[16],-0.185
same,glycan array binding signal (z-score),[17],-0.172
same,glycan array binding signal (z-score),[18],-0.183
same,glycan array binding signal (z-score),[19],-0.184
same,glycan array binding signal (z-score),[20],-0.181
same,glycan array binding signal (z-score),[21],-0.185
same,glycan array binding signal (z-score),[22],-0.179
same,glycan array binding signal (z-score),[23],-0.175
same,glycan array binding signal (z-score),[24],-0.168
same,glycan array binding signal (z-score),[25],-0.184
same,glycan array binding signal (z-score),[26],-0.182
same,glycan array binding signal (z-score),[27],-0.181
same,glycan array binding signal (z-score),[28],-0.183
same,glycan array binding signal (z-score),[29],-0.17
same,glycan array binding signal (z-score),[30],-0.172
same,glycan array binding signal (z-score),[31],-0.186
same,glycan array binding signal (z-score),[32],-0.181
same,glycan array binding signal (z-score),[33],-0.175
same,glycan array binding signal (z-score),[34],-0.184
same,glycan array binding signal (z-score),[35],-0.183
same,glycan array binding signal (z-score),[36],-0.18
same,glycan array binding signal (z-score),[37],-0.173
same,glycan array binding signal (z-score),[38],-0.18
